# Reference: PubChem BioAssay (NCATS)
# Values joined by “and” are separate entries in the source; they are usually repeats but may differ in a detail not shown here. Equal values may be shown once. The shares of active, inactive and inconclusive entries below differ from those in the screen. Where the call is inconclusive, the potency comes from a doubtful curve fit. Active and inactive are the calls of the source. The call rests on the fitted dose curve; in most records, active means well fitted curve in the direction sought with a large enough effect; inconclusive means small, poorly fitted or top-dose-only effect, or another doubt; inactive means no such curve, though single readings can be large; an effect the other way counts as inactive or inconclusive. *1 amine or outer side, *2 acyl side, *3 side chain or, on linkers, in order; H or OH if unused. Where a SMILES comes first, the peptide text is derived from it. Bridges are numbered along the chain shown (N, C = ends). Roman numbers before positions name the chains, in order. [ ]: non-standard residue; d: D form. Actinocin(9to1) = Cc1c2oc3c(C)ccc(C(=O)[*:1])c3nc-2c(C(=O)[*:2])c(N)c1=O; NMeV = CN[C@H](C(=O)O)C(C)C; Sar = CNCC(=O)O
# Test system: not listed separately
# Assay: qHTS to identify inhibitors of the type 1 interferon - major histocompatibility complex class I in skeletal muscle: primary screen against the NCATS Pharmaceutical Collection (AID 1347407);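 further: luminescence of HiBiT knocked into endogenous HLA-B as interferon-induced MHC class I level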; on activity change, negative = inhibition: on the % scale 0 is the no-effect control and ±100 the full control effect
# Conditions: human skeletal muscle cells, IFN-b-induced MHC-I HiBiT luminescence, 24 h; series mostly up to 45.9 µM; activity change, negative = inhibition: at the top concentration
# Outline: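 A qHTS format is used: 8-point, 1:5 compound series with 46 uM top final concentration, applied alongside 4 ng/ml IFN-beta to HLA-B*08:01-HiBiT knock-in myoblasts. Luminescence is measured after 24 h treatment.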
# Potency means the concentration at half of the fitted maximal effect; tags describe the fitted curve by direction and shape.
Structure (SMILES),"activity change, negative = inhibition",Potency
CNCCCC1c2ccccc2C=Cc2ccccc21,inactive: -5.68%,–
Oc1c(Cl)cc(Cl)c(Cl)c1Cc1c(O)c(Cl)cc(Cl)c1Cl,–,"inconclusive: 26.4 µM [inhibitor, single point]"
C[n+]1cc2c3c(ccc2c2ccc4cc5c(cc4c21)OCO5)OCO3,–,"inconclusive: 16.3 µM [inhibitor, single point]"
CC(C)(C)CC(C)(C)c1ccc(OCCOCC[N+](C)(C)Cc2ccccc2)cc1,–,"inconclusive: 29.7 µM [inhibitor, single point]"
"Cc1c2oc3c(C)ccc(C(=O)N[C@@H]4C(=O)N[C@H](C(C)C)C(=O)N5CCC[C@H]5C(=O)N(C)CC(=O)N(C)[C@@H](C(C)C)C(=O)O[C@@H]4C)c3nc-2c(C(=O)N[C@@H]2C(=O)N[C@H](C(C)C)C(=O)N3CCC[C@H]3C(=O)N(C)CC(=O)N(C)[C@@H](C(C)C)C(=O)O[C@@H]2C)c(N)c1=O (I: T[dV]P[Sar][NMeV] / II: T[dV]P[Sar][NMeV]; ester I:1-I:C, II:1-II:C; linker I:N-II:N via Actinocin(9to1))",–,active: 0.938 µM
CC(C)C[C@H](NC(=O)[C@H](Cc1ccccc1)NC(=O)c1cnccn1)B(O)O,–,active: 0.0745 µM
CC/C(=C(\c1ccccc1)c1ccc(OCCN(C)C)cc1)c1ccccc1,–,"inconclusive: 26.4 µM [inhibitor, single point]"

# Test system: not listed separately
# Assay: qHTS to identify inhibitors of the type 1 interferon - major histocompatibility complex class I in skeletal muscle: primary screen against the NCATS Mechanism Interrogation Plate v5.0 (MIPE) Libary (AID 1347411); further: nearly all actives have a fitted effect of over 65% in size;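 on activity change, negative = inhibition: plate controls were vehicle for no effect and reference inhibitor for full effect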
# Conditions: iHSKM cells + IFN-b, HiBiT-tagged MHC-I luminescence, 24 h; activity change, negative = inhibition: at 45.8 µM (top of the series)
# Outline: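 Seed engineered human myoblasts (HLA-B HiBit) in medium without dexamethasone containing 4 ng/ml IFN-beta; after 1 hr add compound titrations (top 46 uM final). Incubate 24 hrs at 37 C, lyse 10 min with HiBiT reagent, read luminescence.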
Structure (SMILES),Potency,"activity change, negative = inhibition"
NC[C@H](O)c1ccc(O)c(O)c1,"inconclusive: 16.5 µM [inhibitor, partial curve]",–
COc1ccc(S(=O)(=O)Nc2cc(-c3c(O)ccc4ccccc34)c(O)c3ccccc23)cc1,active: 16.5 µM,–
O=C(c1ccc(OCCN2CCCCC2)cc1)c1c(-c2ccc(O)cc2)sc2cc(O)ccc12,–,inactive: 10.6%
CCOC(=O)C1=C(C)NC2=C(C(=O)CC(C)(C)C2)C1c1ccc(-c2ccccc2)cc1 (stereo not given),active: 3.3 µM,–
Nc1ncn([C@@H]2O[C@H](CO)[C@@H](O)[C@H]2O)c(=O)n1,"inconclusive: 13.1 µM [inhibitor, partial curve]",–
CC/C(=C(\c1ccccc1)c1ccc(OCCN(C)C)cc1)c1ccccc1,active: 30.1 µM,–
CCN1CCN(Cc2ccc(-c3cc4c(N[C@H](C)c5ccccc5)ncnc4[nH]3)cc2)CC1,active: 18.6 µM,–

# Biological target: Protein phosphatase 1D (Homo sapiens) (UniProt O15297)
# Assay: RapidFire Mass Spectrometry qHTS Assay for Modulators of WT P53-Induced Phosphatase 1 (WIP1) (AID 1347424);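 further: amount of dephosphorylated VEPPL-S-QETFS peptide product formed by WIP1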;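 on activity change, negative = inhibition: plate controls were DMSO wells for no effect and GSK830371 inhibitor control at 10 µM for full effect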
# Conditions: WIP1 dephosphorylation of phosphopeptide, RapidFire MS; series mostly up to 63 µM; activity change, negative = inhibition: at the top concentration
# Outline: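 RapidFire mass spectrometry measured dephosphorylated peptide after 5 min room-temperature reaction of 2 uM VEPPL-pS-QETFS with 10 nM WIP1 (50 mM Tris-HCl pH 7.5, 30 mM MgCl2, 0.1 mM EGTA, BSA), following 1 hr compound preincubation; 1 uM isotope-labelled product standard.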
# Sequence of UniProt O15297 (O15297 whole entry, looked up): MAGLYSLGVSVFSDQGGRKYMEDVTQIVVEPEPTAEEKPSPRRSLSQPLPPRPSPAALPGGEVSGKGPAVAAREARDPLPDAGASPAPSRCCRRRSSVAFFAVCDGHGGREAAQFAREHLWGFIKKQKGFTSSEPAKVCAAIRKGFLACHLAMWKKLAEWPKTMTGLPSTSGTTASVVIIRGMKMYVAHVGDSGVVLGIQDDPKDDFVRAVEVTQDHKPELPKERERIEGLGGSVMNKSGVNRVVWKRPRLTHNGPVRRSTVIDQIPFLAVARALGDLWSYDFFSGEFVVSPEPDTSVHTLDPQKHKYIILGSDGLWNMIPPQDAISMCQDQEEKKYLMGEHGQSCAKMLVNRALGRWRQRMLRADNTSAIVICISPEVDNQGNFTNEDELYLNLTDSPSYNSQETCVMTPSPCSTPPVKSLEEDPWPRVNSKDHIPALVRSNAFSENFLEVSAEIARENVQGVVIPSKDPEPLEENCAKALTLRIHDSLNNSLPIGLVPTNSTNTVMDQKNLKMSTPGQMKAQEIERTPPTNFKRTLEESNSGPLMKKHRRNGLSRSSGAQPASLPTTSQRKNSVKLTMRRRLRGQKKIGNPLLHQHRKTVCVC
Structure (SMILES),Potency,"activity change, negative = inhibition"
Oc1c(Cl)cc(Cl)c(Cl)c1Cc1c(O)c(Cl)cc(Cl)c1Cl,active: 8.91 µM,–
NC[C@H](O)c1ccc(O)c(O)c1,"inconclusive: 31.6 µM [inhibitor, single point]",–
"Cc1c2oc3c(C)ccc(C(=O)N[C@@H]4C(=O)N[C@H](C(C)C)C(=O)N5CCC[C@H]5C(=O)N(C)CC(=O)N(C)[C@@H](C(C)C)C(=O)O[C@@H]4C)c3nc-2c(C(=O)N[C@@H]2C(=O)N[C@H](C(C)C)C(=O)N3CCC[C@H]3C(=O)N(C)CC(=O)N(C)[C@@H](C(C)C)C(=O)O[C@@H]2C)c(N)c1=O (I: T[dV]P[Sar][NMeV] / II: T[dV]P[Sar][NMeV]; ester I:1-I:C, II:1-II:C; linker I:N-II:N via Actinocin(9to1))",–,inactive: -22%

# Test system: not listed separately
# Assay: Primary qHTS for inhibitors of La Crosse Virus (LACV) - induced cell death in SH-SY5Y cells (AID 1508616);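 on activity change: top concentration of the series differs between compounds; 0% = infected DMSO wells and 100% = uninfected DMSO wells; higher means more rescue of cells from virus-induced death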
# Conditions: SH-SY5Y LACV cytopathicity rescue, ATP luminescence, 6 d; series mostly up to 4.29 µM; activity change: at the top concentration
# Outline: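 SH-SY5Y, 6000 cells/well; cpd via pin tool in DMSO; LACV 0.01 MOI; 6 d 37C 5% CO2; ATPLite, 5 min RT; luminescence normalized to ±virus DMSO controls.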
row,Structure (SMILES),Potency
1,C[n+]1cc2c3c(ccc2c2ccc4cc5c(cc4c21)OCO5)OCO3,"inconclusive: 1.41 µM [inhibitor, single point] and inconclusive: 1.41 µM [inhibitor, partial curve, poor fit]"
2,COc1c(C)c2c(c(O)c1C/C=C(\C)CCC(=O)O)C(=O)OC2,"inconclusive: 447 nM [inhibitor, full curve, poor fit]"
3,Nc1ncn([C@@H]2O[C@H](CO)[C@@H](O)[C@H]2O)c(=O)n1,"inconclusive: 355 nM [inhibitor, single point] and active: 1.12 µM"
4,CC(C(O)c1ccc(O)cc1)N1CCC(Cc2ccccc2)CC1 (stereo not given),"inconclusive: 1260 nM [inhibitor, partial curve, poor fit]"
5,Nc1ccn([C@@H]2O[C@H](CO)[C@@H](O)C2O)c(=O)n1 (stereo not given in full),active: 316 nM
6,CN(C)CCCN1c2ccccc2Sc2ccc(Cl)cc21,inactive

# Biological target: Calcium and integrin-binding protein 1 (Homo sapiens) (UniProt Q99828)
# Assay: Confirmatory qHTS for Identification of Calcium Integrin Binding Protein 1 (CIB1) Competitor (AID 1508617); further: nearly all actives have a fitted effect of over 65% in size; on activity change, negative = inhibition: on the % scale 0 is the no-effect control and ±100 the full control effect
# Conditions: CIB1 binding competition assay, biochemical qHTS; series mostly up to 114 µM; activity change, negative = inhibition: at the top concentration
# Outline: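 Compounds at up to 114 uM final met 1 uM GST-tagged CIB1 for 15 min at room temperature (HEPES pH 7.4, 5 mM CaCl2). FITC-labelled alphaIIb peptide, 100 nM, added; polarization read after 15 min more.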
# Sequence of UniProt Q99828 (Q99828 whole entry, looked up): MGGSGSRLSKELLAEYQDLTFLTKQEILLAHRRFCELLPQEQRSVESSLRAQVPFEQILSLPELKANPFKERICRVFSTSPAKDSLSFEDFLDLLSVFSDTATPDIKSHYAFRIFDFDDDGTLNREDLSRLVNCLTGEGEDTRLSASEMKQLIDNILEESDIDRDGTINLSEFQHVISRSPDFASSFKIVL
Structure (SMILES),Potency,"activity change, negative = inhibition"
Oc1c(Cl)cc(Cl)c(Cl)c1Cc1c(O)c(Cl)cc(Cl)c1Cl,"inconclusive: 7.94 µM [inhibitor, full curve]",–
NC[C@H](O)c1ccc(O)c(O)c1,"inconclusive: 44.7 µM [inhibitor, single point]",–
C[n+]1cc2c3c(ccc2c2ccc4cc5c(cc4c21)OCO5)OCO3,–,inactive: 22.7% [at 57.1 µM]

# Biological target: Calcium and integrin-binding protein 1 (Homo sapiens) (UniProt Q99828)
# Assay: Validation qHTS for Identification of Calcium Integrin Binding protein 1 (CIB1) Competitor (AID 1508618); on activity change, negative = inhibition: on the % scale 0 is the no-effect control and ±100 the full control effect
# Conditions: CIB1-GST / FITC-alphaIIb peptide fluorescence polarization; series mostly up to 114 µM; activity change, negative = inhibition: at the top concentration
# Outline: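 CIB1-GST (1 uM final) incubated 15 min at room temperature with compounds (up to 114 uM), then FITC-labelled alphaIIb peptide (100 nM) added. FP read (Ex 480/Em 540) after 15 min, pH 7.4 buffer containing 5 mM CaCl2.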
Structure (SMILES),Potency,"activity change, negative = inhibition"
Nc1nc(N)c2nc(CNc3ccc(C(=O)NC(CCC(=O)O)C(=O)O)cc3)cnc2n1 (stereo not given),"inconclusive: 39.8 µM [inhibitor, partial curve]",–
O=c1n(CCCN2CCN(c3cccc(Cl)c3)CC2)nc2ccccn12,–,inactive: 16.8%
COc1cc(NS(C)(=O)=O)ccc1Nc1c2ccccc2nc2ccccc12,"inconclusive: 56.2 µM [inhibitor, partial curve]",–
CN(Cc1cnc2nc(N)nc(N)c2n1)c1ccc(C(=O)N[C@@H](CCC(=O)O)C(=O)O)cc1,"inconclusive: 44.7 µM [inhibitor, partial curve]",–
